“And” between values parts separate entries of the source, which are not always exact repeats. Equal entries are not always repeated. This list was built around the results that the source calls inconclusive (neither active nor inactive); the mix of calls is not that of the screen. Potencies of inconclusive entries are doubtful fits and often do not repeat. The source made the active and inactive calls. The call rests on the fitted dose curve; in most records, active means well fitted curve in the direction sought with a large enough effect; inconclusive means small, poorly fitted or top-dose-only effect, or another doubt; inactive means no such curve, though single readings can be large; an effect the other way counts as inactive or inconclusive.
Key:
[1] = Viability qHTS for spleen associated tyrosine kinase inhibitor (SYKi) naive MV4-11 cells (AID 1963823); details: MV4-11 AML viability, CellTiter-Glo luminescence, 72 h; viability (% of control): at 45 µM (top of the series); further: nearly all actives have a fitted effect of over 40% in size
Method in brief: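 In this viability screen, compounds acted on SYK inhibitor naive MV4-11 cells for three days (72 hr, 37 C). Remaining viable cells were measured by CellTiter-Glo luminescence following a 10 min room-temperature development.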

[2] = Viability qHTS for spleen associated tyrosine kinase inhibitor (SYKi) drug resistant MV4-11 cells (AID 1963824); further: nearly all actives have a fitted effect of over 35% in size
Method in brief: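 SYK-inhibitor-resistant MV4-11 AML cells were seeded at 500 per well onto compound and cultured 72 hours (37 °C, 5% CO2). CellTiter-Glo was then added, and after 10 min at room temperature, luminescence gave viability.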

[3] = Cellular viability qHTS for adrenocortical cancer (ACC) cell line SW-13 (AID 1963989); details: SW-13 ACC cells viability, CellTiter-Glo, 48 h; activity (max response): stronger effect = lower value; further: nearly all actives have a fitted effect of over 65% in size;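 on activity (max response): cells grown in serum-free medium with ITS supplement; on the % scale 0 is the no-effect control and ±100 the full control effect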
Method in brief: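 SW-13 cells in ITS-supplemented serum-free DMEM were plated overnight, then exposed for 48 h at 37C to compound titrations (up to 46 uM final). Viability was read by CellTiter-Glo luminescence; four-parameter logistic fits gave IC50 and efficacy.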
Potency means the concentration at half of the fitted maximal effect; tags describe the fitted curve by direction and shape.

Structure (SMILES)	Potency [1]	Potency [2]	Potency [3]	activity (max response) [3]
C/C=C(/C(=C/C)c1ccc(OC(C)=O)cc1)c1ccc(OC(C)=O)cc1	inconclusive: 29.9 µM [cytotoxic, single point]	inconclusive: 29.9 µM [cytotoxic, single point]	active: 18.4 µM	–
CCCCCCCCNC(C)C(O)c1ccc(SC(C)C)cc1 (centres undefined)	inconclusive: 13.3 µM [cytotoxic, partial curve, poor fit]	inconclusive: 16.8 µM [cytotoxic, single point]	inconclusive: 18.4 µM [cytotoxic, single point]	–
CCNC(=O)/C=C/c1cccc(Br)c1	inactive	inactive	–	inactive: -10.3%
c1ccc2occc2c1	inconclusive: 3.86 µM [rising, partial curve, poor fit]	inconclusive: 0.217 µM [rising, partial curve, poor fit]	inconclusive: 31.6 µM [cytotoxic, single point]	–
CC[C@]1(O)CC2CN(CCc3c([nH]c4ccccc34)[C@@](C(=O)OC)(c3cc4c(cc3OC)N(C)[C@H]3[C@@](O)(C(=O)OC)[C@H](OC(C)=O)[C@]5(CC)C=CCN6CC[C@]43[C@@H]65)C2)C1 (some centres undefined)	inconclusive: 103 nM [cytotoxic, full curve] and active: 33.2 nM	active: 65.1 nM and active: 33.2 nM	active: 0.282 µM	–
CN(C)Cc1cccc(N=C(c2ccccc2)c2c(O)[nH]c3cc(C(N)=O)ccc23)c1	inconclusive: 2.06 µM [cytotoxic, full curve] and active: 468 nM	active: 2.91 µM and active: 1.18 µM	inconclusive: 35.5 µM [cytotoxic, partial curve, poor fit]	–
COc1ccc(O)cc1	inactive	inactive	–	inactive: -1.22%
Cc1ccc2nc(N)[nH]c(=O)c2c1Sc1ccncc1	inconclusive: 1.33 µM [cytotoxic, full curve, poor fit] and inconclusive: 3.26 µM [cytotoxic, full curve]	inconclusive: 0.75 µM [cytotoxic, full curve, poor fit]	inconclusive: 0.82 µM [cytotoxic, full curve, poor fit]	–
CCCc1c(OCCCCc2nn[nH]n2)ccc(C(C)=O)c1O	inconclusive: 13.3 µM [cytotoxic, partial curve, poor fit]	inconclusive: 15 µM [cytotoxic, partial curve, poor fit]	–	inactive: -4.43%
Fc1ccc2[nH]ccc2c1-c1nc(N2CCOCC2)c2sc(CN3CCN(CC4CC4)CC3)cc2n1	inconclusive: 1.84 µM [cytotoxic, partial curve, poor fit] and inconclusive: 4.68 µM [cytotoxic, partial curve]	inconclusive: 1.46 µM [cytotoxic, partial curve, poor fit] and active: 5.9 µM	inconclusive: 28.2 µM [cytotoxic, single point]	–
CCC(CC)C(c1ccc(Nc2nc3ccccc3s2)cc1)n1cncn1 (centres undefined)	inconclusive: 2.31 µM [cytotoxic, partial curve]	inconclusive: 2.06 µM [cytotoxic, full curve]	active: 22.4 µM	–
CN1CCOC(c2ccccc2)c2ccccc2C1 (centres undefined)	inactive	inactive	–	inactive: -0.385%
C[C@H]1C[C@@H]2[C@H]([C@@H](O)C[C@@]3(C)[C@H]2CC[C@]3(O)C(=O)CO)[C@@]2(C)C=CC(=O)C=C12	inconclusive: 13.3 µM [cytotoxic, partial curve, poor fit] and inconclusive: 1.86 µM [cytotoxic, full curve, poor fit]	inconclusive: 6.68 µM [cytotoxic, full curve] and inconclusive: 13.2 µM [cytotoxic, partial curve, poor fit]	–	inactive: 8.4% and inactive: 9.49%
O=C(O)CCCCN(CCc1ccccc1OCc1ccc(CCc2ccccc2)cc1)Cc1ccc(C(=O)O)cc1	inconclusive: 41.7 µM [cytotoxic, partial curve, poor fit]	inconclusive: 23.5 µM [cytotoxic, single point]	–	inactive: 9.06%
Nc1ncnc2c1c(COc1cccc(Cl)c1)nn2C1CCOCC1	inconclusive: 13 µM [cytotoxic, partial curve]	inconclusive: 14.6 µM [cytotoxic, partial curve, poor fit]	inconclusive: 14.1 µM [cytotoxic, single point]	–
C[C@H](CN(C)C)Oc1nc(Nc2cc3cccc(Cl)c3cn2)cnc1C#N	active: 259 nM and active: 934 nM	active: 411 nM and active: 934 nM	–	inactive: -6.08%
CCC1CCCCN1C(=O)n1ncc(C(O)(c2ccccc2)c2ccccc2)n1 (centres undefined)	active: 11.8 µM	active: 5.25 µM	active: 15.8 µM	–

Structure (SMILES)	Potency [1]	Potency [2]	Potency [3]	activity (max response) [3]
O=C(OCCOCCO)c1ccccc1Nc1cccc(C(F)(F)F)c1	inconclusive: 23.7 µM [cytotoxic, single point] and inconclusive: 23.1 µM [cytotoxic, partial curve]	inconclusive: 21.1 µM [cytotoxic, partial curve]	inconclusive: 23.1 µM [cytotoxic, single point]	–
CCCCCCCC/C=C\CCCCCCCCN	inactive	inactive	–	inactive: 7.78%
Cc1nc(-c2cccnc2)sc1C(=O)Nc1ccccc1-c1cn2c(CN3CCOCC3)csc2n1	inconclusive: 13 µM [cytotoxic, partial curve, poor fit] and inactive	inconclusive: 16.6 µM [cytotoxic, partial curve, poor fit]	–	inactive: -5.59%
C[C@H](NC(=O)/C(C#N)=C/c1cccc(Br)n1)c1ccccc1	active: 3.72 µM	active: 2.95 µM	inconclusive: 35.5 µM [cytotoxic, single point]	–
Cc1ccccc1C(=O)Nc1ccc(C(=O)N2CCCC(N(C)C)c3ccccc32)cc1 (centres undefined)	active: 5.96 µM and active: 2.91 µM	active: 4.73 µM and active: 4.61 µM	inconclusive: 2.06 µM [cytotoxic, partial curve, poor fit]	–
COc1cc2ncnc(Nc3cccc(Cl)c3F)c2cc1OC(=O)N1CCN(C)C[C@H]1C	inconclusive: 5.25 µM [cytotoxic, full curve, poor fit] and inconclusive: 4.61 µM [cytotoxic, partial curve]	inconclusive: 6.61 µM [cytotoxic, full curve, poor fit] and active: 7.31 µM	inconclusive: 6.31 µM [cytotoxic, partial curve, poor fit]	–
CCc1cc(S(=O)(=O)O)c2cc(C(C)C)cccc1-2	inactive	inactive	inconclusive: 29.1 µM [cytotoxic, single point]	–
CCOC(=O)c1c(N)sc2c1CCN(Cc1ccccc1)C2	inconclusive: 10.6 µM [cytotoxic, partial curve]	inconclusive: 13.3 µM [cytotoxic, partial curve]	inconclusive: 14.6 µM [cytotoxic, partial curve]	–
CCOC(=O)c1cc(=O)c2c(OCC(COc3cccc4oc(C(=O)OCC)cc(=O)c34)OC(=O)[C@@H](N)CCCCN)cccc2o1	inactive	inactive	–	inactive: 4.59%
O=C(Nc1ccc2c(c1)CCN(Cc1ncn[nH]1)C2)c1ccccc1-c1ccc(C(F)(F)F)cc1	inconclusive: 20.6 µM [cytotoxic, partial curve]	inconclusive: 20.6 µM [cytotoxic, partial curve]	–	inactive: -15.2%
CC[N+](CC)(CC)CCOc1ccc(/C=C/c2ccccc2)cc1	inactive	inactive	inconclusive: 29.1 µM [cytotoxic, single point]	–
CO[C@@]1(NC(=O)Cc2cccs2)C(=O)N2C(C(=O)O)=C(COC(N)=O)CS[C@@H]21	inconclusive: 4.22 µM [rising, partial curve, poor fit]	inconclusive: 0.0047 µM [rising, full curve]	–	inactive: 12.4%
O=C(O)c1ccc[n+]([O-])c1	inactive	inconclusive: 2.37 µM [rising, full curve, poor fit]	inconclusive: 18.4 µM [cytotoxic, single point]	–
CCN(CC)CC(=O)Nc1c(C)cccc1C	inconclusive: 15 µM [cytotoxic, partial curve, poor fit]	inconclusive: 0.0009 µM	–	inactive: 2.91%
Nc1cc(C(F)(F)F)c(-c2nc(N3CCOCC3)nc(N3CCOCC3)n2)cn1	inconclusive: 0.0105 µM [rising, full curve, poor fit]	inconclusive: 0.0059 µM [rising, full curve, poor fit]	active: 11.2 µM	–
COC(=O)N[C@@H](C)CNc1nccc(-c2cn(C(C)C)nc2-c2cc(Cl)cc(NS(C)(=O)=O)c2F)n1	inconclusive: 580 nM [cytotoxic, full curve] and inconclusive: 2.63 µM [cytotoxic, full curve]	inconclusive: 820 nM [cytotoxic, full curve] and inconclusive: 1.86 µM [cytotoxic, full curve]	–	inactive: -16%

— PubChem BioAssay (NCATS)
